Changes are numbered by the printed parent chain. Results are given in words; binding and its absence hold for the method and conditions named. Binding seen in cells or lysates may run through a third protein. Some results given as binding are weak or reduced against the parent protein; the word gives no strength. Where a sequence is shown, tags or fusion partners need not be part of it.
What was measured:
[1] = molecular target: T1, EGFP-ULK2 WT (human) (UniProt Q8IYT8); experiment: co-IP; HEK293 cells transfected with EGFP-ULK2 WT, P242A or P794A, lysed after 48 hours; IP with rabbit anti-EGFP antibody; blot for endogenous Kapβ2 (Fig 2B, Fig 5A)
T1 sequence: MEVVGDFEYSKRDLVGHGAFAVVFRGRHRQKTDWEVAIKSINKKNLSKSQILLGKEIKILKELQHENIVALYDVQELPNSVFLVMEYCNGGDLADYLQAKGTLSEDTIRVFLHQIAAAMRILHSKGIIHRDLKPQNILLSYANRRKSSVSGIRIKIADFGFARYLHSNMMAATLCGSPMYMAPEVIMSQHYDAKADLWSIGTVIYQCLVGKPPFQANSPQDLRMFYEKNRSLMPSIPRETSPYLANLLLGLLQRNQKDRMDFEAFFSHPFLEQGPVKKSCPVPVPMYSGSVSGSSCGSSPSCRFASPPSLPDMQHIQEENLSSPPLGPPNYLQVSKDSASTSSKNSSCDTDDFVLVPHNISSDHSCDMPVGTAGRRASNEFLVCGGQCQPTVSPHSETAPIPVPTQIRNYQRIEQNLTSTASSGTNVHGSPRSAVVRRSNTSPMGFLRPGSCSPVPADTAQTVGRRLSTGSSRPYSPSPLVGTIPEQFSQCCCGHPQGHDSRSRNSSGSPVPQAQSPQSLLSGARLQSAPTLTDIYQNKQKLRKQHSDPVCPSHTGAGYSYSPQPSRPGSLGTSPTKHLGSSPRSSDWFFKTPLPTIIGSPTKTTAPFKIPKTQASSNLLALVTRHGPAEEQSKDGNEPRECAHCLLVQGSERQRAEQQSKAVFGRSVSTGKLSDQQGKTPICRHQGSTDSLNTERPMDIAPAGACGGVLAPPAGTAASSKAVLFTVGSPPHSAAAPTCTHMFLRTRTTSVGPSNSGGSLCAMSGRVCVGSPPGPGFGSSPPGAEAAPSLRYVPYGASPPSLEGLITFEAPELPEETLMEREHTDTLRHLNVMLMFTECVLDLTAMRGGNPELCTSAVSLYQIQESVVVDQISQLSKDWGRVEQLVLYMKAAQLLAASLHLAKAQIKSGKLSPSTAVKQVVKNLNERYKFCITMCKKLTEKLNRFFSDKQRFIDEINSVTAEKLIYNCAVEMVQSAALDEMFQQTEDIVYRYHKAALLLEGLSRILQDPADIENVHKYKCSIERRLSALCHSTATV

By UniProt entry, the sequences of proteins in these tests, tags left out.
UniProt Q92973: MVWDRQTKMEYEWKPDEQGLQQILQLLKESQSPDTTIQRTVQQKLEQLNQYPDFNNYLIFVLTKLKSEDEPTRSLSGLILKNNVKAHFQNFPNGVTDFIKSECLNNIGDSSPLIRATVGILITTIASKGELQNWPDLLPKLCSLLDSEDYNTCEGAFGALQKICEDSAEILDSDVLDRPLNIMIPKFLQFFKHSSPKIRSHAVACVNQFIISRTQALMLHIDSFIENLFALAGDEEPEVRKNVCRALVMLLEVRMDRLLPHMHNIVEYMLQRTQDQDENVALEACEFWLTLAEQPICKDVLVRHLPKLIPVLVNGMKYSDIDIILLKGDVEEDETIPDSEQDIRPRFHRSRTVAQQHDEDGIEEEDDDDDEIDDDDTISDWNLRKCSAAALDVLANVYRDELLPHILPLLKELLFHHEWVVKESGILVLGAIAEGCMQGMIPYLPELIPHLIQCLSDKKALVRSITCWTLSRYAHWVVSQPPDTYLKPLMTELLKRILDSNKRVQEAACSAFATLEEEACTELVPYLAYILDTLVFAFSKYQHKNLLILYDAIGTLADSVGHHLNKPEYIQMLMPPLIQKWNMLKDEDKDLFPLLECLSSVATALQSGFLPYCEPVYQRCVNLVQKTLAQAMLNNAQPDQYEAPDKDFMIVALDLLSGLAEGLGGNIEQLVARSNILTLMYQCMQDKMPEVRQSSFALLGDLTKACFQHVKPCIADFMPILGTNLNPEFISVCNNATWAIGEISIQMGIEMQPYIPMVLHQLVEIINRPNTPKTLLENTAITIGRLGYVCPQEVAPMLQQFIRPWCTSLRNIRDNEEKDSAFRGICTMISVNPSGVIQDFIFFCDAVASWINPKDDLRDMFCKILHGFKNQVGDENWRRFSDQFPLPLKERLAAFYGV

[2] = molecular target: T2, EGFP-ULK2 PY-NLS mutant (P794A) (human) (UniProt Q8IYT8); experiment: as above
T2 sequence: T1 sequence with P794A

binding [1]: binds
binding [2]: no binding
Substance: karyopherin beta 2 (Kapβ2), endogenous (from UniProt Q92973 1-898)

From PMC4460075, “ULK2 Ser 1027 Phosphorylation by PKA Regulates Its Nuclear Localization Occurring through Karyopherin Beta 2 Recognition of a PY-NLS Motif” (PLoS ONE, 2015)
